The supplement of paper PMC12067230
Single values of this set are uncertain.

Test: amyloid nucleation score relative to library mode (yeast Sup35 reporter selection) (log enrichment difference); higher = more amyloid nucleation; sequences are the first 22 residues of the Bri2 peptide extended by up to 12 random residues
Settings: random library (experiment): 1;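 active = nucleation score significantly above 0 at FDR 0.05; inactive = not significantly above 0 or absent from output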
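Note: [psi-pin-] Saccharomyces cerevisiae expressing SupN fusions, induced by 100 µM Cu2SO4, selected 7 d at 30 °C without adenine and uracil, scored by deep sequencing of output versus input.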

Row | Sequence | amyloid nucleation score
1 | EASNCFAIRHFENKFAVETLICISRCNSSTLAWM | 1.55
2 | EASNCFAIRHFENKFAVETLICISRSLSLTLPSI | -0.0479
3 | EASNCFAIRHFENKFAVETLICISSLR | -0.469
4 | EASNCFAIRHFENKFAVETLICISTILNFRFRRL | inactive
5 | EASNCFAIRHFENKFAVETLICISVAATWFWL | 4.95
6 | EASNCFAIRHFENKFAVETLICISWCTWLVRMPH | inactive
7 | EASNCFAIRHFENKFAVETLICISWNK | 5.38
8 | EASNCFAIRHFENKFAVETLICIT | inactive
9 | EASNCFAIRHFENKFAVETLICITAAEGQRALMP | inactive
10 | EASNCFAIRHFENKFAVETLICITCLSDHSPPAW | 8.15
11 | EASNCFAIRHFENKFAVETLICITCVHGLSWLYA | 4.74
12 | EASNCFAIRHFENKFAVETLICITCVVPLLLSDR | 3.7
13 | EASNCFAIRHFENKFAVETLICITK | 5.29
14 | EASNCFAIRHFENKFAVETLICITLIPCEEAPIR | 0.542
15 | EASNCFAIRHFENKFAVETLICITMFRCLLYANP | -0.481
16 | EASNCFAIRHFENKFAVETLICITSCFKTRFRDP | -0.258
17 | EASNCFAIRHFENKFAVETLICITSNAGHSVKLF | 3.56
18 | EASNCFAIRHFENKFAVETLICITSSLLVSGIKV | inactive

Same assay, conditions: random library (experiment): 2

Row | Sequence | amyloid nucleation score
19 | EASNCFAIRHFENKFAVETLICISQWDVCLRCMK | inactive
20 | EASNCFAIRHFENKFAVETLICISRAVACGSCYQ | inactive
21 | EASNCFAIRHFENKFAVETLICISSCSHYARRNY | 2.59
22 | EASNCFAIRHFENKFAVETLICISSDIIRCGVLR | inactive
23 | EASNCFAIRHFENKFAVETLICISSMFYVFLGIL | inactive
24 | EASNCFAIRHFENKFAVETLICISVTFYESPYVP | 2.1
25 | EASNCFAIRHFENKFAVETLICISWFTLDECVRV | inactive
26 | EASNCFAIRHFENKFAVETLICITAMYYIGLRAG | inactive
27 | EASNCFAIRHFENKFAVETLICITCFMFIQSMEG | inactive
28 | EASNCFAIRHFENKFAVETLICITCRP | inactive
29 | EASNCFAIRHFENKFAVETLICITFECYARKSGR | -0.457
30 | EASNCFAIRHFENKFAVETLICITKCLFFRDPND | inactive
31 | EASNCFAIRHFENKFAVETLICITNCHNSVVGLK | 7.35
32 | EASNCFAIRHFENKFAVETLICITPLHEE | inactive
33 | EASNCFAIRHFENKFAVETLICITSCYFKFSRDG | 0.519
34 | EASNCFAIRHFENKFAVETLICITSLG | inactive
35 | EASNCFAIRHFENKFAVETLICITSPTSVFVRLV | inactive
36 | EASNCFAIRHFENKFAVETLICITVCADVVNWLG | inactive

Same assay, conditions: random library (experiment): 3

Row | Sequence | amyloid nucleation score
37 | EASNCFAIRHFENKFAVETLICISRFWCWHSEAR | inactive
38 | EASNCFAIRHFENKFAVETLICISRYAGN | 4.22
39 | EASNCFAIRHFENKFAVETLICISVNQVSFRTAP | 4.76
40 | EASNCFAIRHFENKFAVETLICISVWLVRYVFPG | inactive
41 | EASNCFAIRHFENKFAVETLICISYGAFLVCRRQ | 2.81
42 | EASNCFAIRHFENKFAVETLICITEMLALPYKLG | 0.0846
43 | EASNCFAIRHFENKFAVETLICITFWCLLCSDVR | inactive
44 | EASNCFAIRHFENKFAVETLICITLAKGSYRVWG | inactive
45 | EASNCFAIRHFENKFAVETLICITLLMLHRVSVP | inactive
46 | EASNCFAIRHFENKFAVETLICITPGYVE | inactive
47 | EASNCFAIRHFENKFAVETLICITSGTVCGTVFL | 5.54
48 | EASNCFAIRHFENKFAVETLICITVMGYGPRKNP | 3.17
